The source of these data is paper PMC9161972 (Journal of Medical Virology, 2022).

Series [1] has as its system HIV/MLAV pseudovirus (Měnglà virus glycoprotein). Kind of series: organism not typed. To be noted: for IC50: A549, 48 h, read-out: IC50 HIV/MLAV. It counts as cell-based.
Series [2] deals with HIV/MARV pseudovirus (Marburg virus Musoke glycoprotein). Kind of series: organism not typed. The conditions noted are these: A549, 48 h, read-out: IC50 HIV/MARV. The format is cell-based.
Series [3] deals with HIV/EBOV pseudovirus (Ebola virus Zaire Mayinga glycoprotein). Put plainly: organism not typed. To be noted: A549, 48 h, read-out: IC50 HIV/EBOV. The format is cell-based.
Another series is described as follows: in vitro. To be noted: human.

Take `CNCCC(Oc1ccc(C(F)(F)F)cc1)c1ccccc1` (centres unmarked) [Fluoxetine]: the IC50 amounted to 7840 ± 540 nM in series [1], 2440 ± 580 nM in series [2] and 3000 ± 540 nM in series [3].
Turning to `CN1[C@@H]2CC[C@H]1C[C@@H](OC(c1ccccc1)c1ccccc1)C2` [Benztropine], the “selectivity index (SI) with MLAV” value in series [1] is listed as “greater than 10”. Further, the values for the IC50 in series [1], in series [2] and in series [3] were 4930 ± 240 nM, 2540 ± 570 nM and 400 ± 520 nM, respectively.
The compound `Cc1ccccc1C(OCCN(C)C)c1ccccc1` (centres unmarked) [Orphenadrine] returned a CC50 in “in vitro” above 100000 nM. The IC50 in series [1] came to 23000 ± 4710 nM; in series [2] it was 10100 ± 3580 nM; in series [3], 1450 ± 560 nM.
